These are yes or no findings as the source states them, for the method shown. Some entries that bind do so weakly or less than the wild type. Each block holds one binder with its values, some of them ahead of it.
Columns and labels:
Experiment in all cases: two-hybrid; Matchmaker Two-Hybrid System 3 (Clontech); pGBKT7 (Gal4-BD) and pGAD424 (Gal4-AD) fusions co-introduced into S. cerevisiae AH109; interaction read as growth on SC-LWH (no histidine), 3-4 days at 30 °C
[1] = target: T1, Mal3 (1–308: full-length) (S. pombe) (UniProt Q10113)
T1 sequence: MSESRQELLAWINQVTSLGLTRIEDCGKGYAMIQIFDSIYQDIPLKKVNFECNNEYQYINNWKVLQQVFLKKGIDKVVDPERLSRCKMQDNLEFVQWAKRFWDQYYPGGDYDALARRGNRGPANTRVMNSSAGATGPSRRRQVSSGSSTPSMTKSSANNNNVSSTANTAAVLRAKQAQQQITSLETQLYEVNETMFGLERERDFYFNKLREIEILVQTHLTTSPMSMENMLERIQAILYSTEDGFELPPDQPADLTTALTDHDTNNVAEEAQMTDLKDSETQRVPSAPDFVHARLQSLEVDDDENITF

Mal3 (1–241) (S. pombe) = target: T2, Mal3 (1–241) (S. pombe) (UniProt Q10113)
T2 sequence: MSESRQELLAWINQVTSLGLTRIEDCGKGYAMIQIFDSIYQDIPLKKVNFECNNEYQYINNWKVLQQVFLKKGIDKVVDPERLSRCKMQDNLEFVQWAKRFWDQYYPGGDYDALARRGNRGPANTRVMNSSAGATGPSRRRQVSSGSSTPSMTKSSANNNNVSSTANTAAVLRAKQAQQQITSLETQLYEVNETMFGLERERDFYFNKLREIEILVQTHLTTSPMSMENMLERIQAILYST

[2] = target: T3, Mal3 (135–308) (S. pombe) (UniProt Q10113)
T3 sequence: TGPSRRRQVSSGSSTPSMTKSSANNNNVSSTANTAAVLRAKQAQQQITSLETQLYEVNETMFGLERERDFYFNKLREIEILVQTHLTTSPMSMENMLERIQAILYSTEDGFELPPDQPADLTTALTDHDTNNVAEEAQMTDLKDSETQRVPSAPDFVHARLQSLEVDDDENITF

Mal3 (1–143) (S. pombe) = Mal3 (1–143) (S. pombe) (UniProt Q10113)
Tip1 (S. pombe) = target: T4, Tip1 (S. pombe) (UniProt P79065)
T4 sequence: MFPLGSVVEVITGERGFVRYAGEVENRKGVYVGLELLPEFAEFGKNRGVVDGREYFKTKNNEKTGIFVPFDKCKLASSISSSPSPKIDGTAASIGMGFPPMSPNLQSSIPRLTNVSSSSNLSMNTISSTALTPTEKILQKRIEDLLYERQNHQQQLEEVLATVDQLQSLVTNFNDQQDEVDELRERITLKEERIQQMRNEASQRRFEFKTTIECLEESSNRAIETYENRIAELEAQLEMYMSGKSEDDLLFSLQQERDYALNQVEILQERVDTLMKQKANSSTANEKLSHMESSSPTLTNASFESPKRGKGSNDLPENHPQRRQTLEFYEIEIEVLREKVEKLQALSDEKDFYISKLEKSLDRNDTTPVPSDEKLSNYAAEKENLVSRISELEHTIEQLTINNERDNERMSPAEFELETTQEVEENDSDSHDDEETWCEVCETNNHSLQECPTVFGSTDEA

Mal3 (1–218) (S. pombe) = target: T5, Mal3 (1–218) (S. pombe) (UniProt Q10113)
T5 sequence: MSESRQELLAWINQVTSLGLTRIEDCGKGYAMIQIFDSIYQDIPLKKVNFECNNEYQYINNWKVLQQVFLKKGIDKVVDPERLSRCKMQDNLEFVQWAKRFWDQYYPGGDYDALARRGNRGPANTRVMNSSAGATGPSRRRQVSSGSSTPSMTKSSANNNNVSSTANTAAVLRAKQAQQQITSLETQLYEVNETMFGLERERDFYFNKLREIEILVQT

B1: Mal3 (1–218) (domain or fragment, UniProt Q10113 1-218)
chain: T5 sequence
binding [1]: binds | binding (Mal3 (1–241) (S. pombe)): binds | binding [2]: binds

B3: Mal3 (1–143) (domain or fragment, UniProt Q10113 1-143)
chain: MSESRQELLAWINQVTSLGLTRIEDCGKGYAMIQIFDSIYQDIPLKKVNFECNNEYQYINNWKVLQQVFLKKGIDKVVDPERLSRCKMQDNLEFVQWAKRFWDQYYPGGDYDALARRGNRGPANTRVMNSSAGATGPSRRRQV
binding (Mal3 (1–143) (S. pombe)): no binding | binding (Tip1 (S. pombe)): no binding

B6: Mal3 (1–197) (domain or fragment, UniProt Q10113 1-197)
chain: MSESRQELLAWINQVTSLGLTRIEDCGKGYAMIQIFDSIYQDIPLKKVNFECNNEYQYINNWKVLQQVFLKKGIDKVVDPERLSRCKMQDNLEFVQWAKRFWDQYYPGGDYDALARRGNRGPANTRVMNSSAGATGPSRRRQVSSGSSTPSMTKSSANNNNVSSTANTAAVLRAKQAQQQITSLETQLYEVNETMFG
binding [1]: binds | binding (Mal3 (1–218) (S. pombe)): binds | binding (Mal3 (1–241) (S. pombe)): binds | binding [2]: binds

Results, then the binder that gave them:

binding [1]: binds
B2: Mal3 (135–308) (domain or fragment, UniProt Q10113 135-308)
chain: T3 sequence

binding (Tip1 (S. pombe)): binds
B4: Mal3 (1–308: full-length) (protein, UniProt Q10113 1-308)
chain: T1 sequence

binding [1]: binds | binding [2]: binds
B5: Mal3 (1–241) (domain or fragment, UniProt Q10113 1-241)
chain: T2 sequence

— publication PMC6459531
